{"source": "the supplement of paper PMC8728848", "assay_in_all_cases": "glycan array binding signal (z-score within array); higher = stronger binding", "details_in_all_cases": "glycan notation: IUPAC condensed, linker removed", "key": {"Fuc(a1-2)Gal": {"target": "Fuc(a1-2)Gal", "how_it_was_run": "(§1)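 The binding signal is a Z-score computed within each array and averaged over linkers. Arrays of the same protein sequence at different concentrations or buffers were also averaged together. Data originate from 3228 arrays in the Consortium for Functional Glycomics database, kept only where the protein sequence was available.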"}, "Fuc(a1-2)Gal(b1-3)GalNAc": {"target": "Fuc(a1-2)Gal(b1-3)GalNAc", "how_it_was_run": "as §1"}, "[1]": {"target": "Fuc(a1-2)Gal(b1-3)GalNAc(a1-3)[Fuc(a1-2)]Gal(b1-4)Glc", "how_it_was_run": "as §1"}, "[2]": {"target": "Fuc(a1-2)Gal(b1-3)GalNAc(a1-3)[Fuc(a1-2)]Gal(b1-4)GlcNAc", "how_it_was_run": "as §1"}, "[3]": {"target": "Fuc(a1-2)Gal(b1-3)GalNAc(b1-3)Gal", "how_it_was_run": "as §1"}, "[4]": {"target": "Fuc(a1-2)Gal(b1-3)GalNAc(b1-3)Gal(a1-4)Gal(b1-4)Glc", "how_it_was_run": "as §1"}, "[5]": {"target": "Fuc(a1-2)Gal(b1-3)GalNAc(b1-4)[Neu5Ac(a2-3)]Gal(b1-4)Glc", "how_it_was_run": "as §1"}, "Fuc(a1-2)Gal(b1-3)GlcNAc": {"target": "Fuc(a1-2)Gal(b1-3)GlcNAc", "how_it_was_run": "as §1"}, "[6]": {"target": "Fuc(a1-2)Gal(b1-3)GlcNAc(b1-2)Man(a1-3)[Fuc(a1-2)Gal(b1-3)GlcNAc(b1-2)Man(a1-6)]Man(b1-4)GlcNAc(b1-4)GlcNAc", "how_it_was_run": "as §1"}, "[7]": {"target": "Fuc(a1-2)Gal(b1-3)GlcNAc(b1-2)Man(a1-3)[Fuc(a1-2)Gal(b1-3)GlcNAc(b1-2)Man(a1-6)]Man(b1-4)GlcNAc(b1-4)[Fuc(a1-6)]GlcNAc", "how_it_was_run": "as §1"}, "[8]": {"target": "Fuc(a1-2)Gal(b1-3)GlcNAc(b1-3)Gal(b1-4)Glc", "how_it_was_run": "as §1"}, "[9]": {"target": "Fuc(a1-2)Gal(b1-3)GlcNAc(b1-3)GalNAc", "how_it_was_run": "as §1"}, "[10]": {"target": "Fuc(a1-2)Gal(b1-3)GlcNAc(b1-3)[Fuc(a1-2)Gal(b1-3)GlcNAc(b1-6)]GalNAc", "how_it_was_run": "as §1"}, "[11]": {"target": "Fuc(a1-2)Gal(b1-3)GlcNAc(b1-3)[Gal(b1-4)GlcNAc(b1-6)]Gal(b1-4)Glc", "how_it_was_run": "as §1"}, "[12]": {"target": "Fuc(a1-2)Gal(b1-3)GlcNAc(b1-3)[Neu5Ac(a2-6)Gal(b1-4)GlcNAc(b1-6)]Gal(b1-4)Glc", "how_it_was_run": "as §1"}, "[13]": {"target": "Fuc(a1-2)Gal(b1-3)GlcNAc6S", "how_it_was_run": "as §1"}, "[14]": {"target": "Fuc(a1-2)Gal(b1-3)[Fuc(a1-4)]GlcNAc", "how_it_was_run": "as §1"}, "[15]": {"target": "Fuc(a1-2)Gal(b1-3)[Fuc(a1-4)]GlcNAc(b1-2)Man(a1-3)[Fuc(a1-2)Gal(b1-3)[Fuc(a1-4)]GlcNAc(b1-2)Man(a1-3)]Man(b1-4)GlcNAc(b1-4)GlcNAc", "how_it_was_run": "as §1"}, "[16]": {"target": "Fuc(a1-2)Gal(b1-3)[Fuc(a1-4)]GlcNAc(b1-2)Man(a1-3)[Fuc(a1-2)Gal(b1-3)[Fuc(a1-4)]GlcNAc(b1-2)Man(a1-6)]Man(b1-4)GlcNAc(b1-4)[Fuc(a1-6)]GlcNAc(b1-4)[Fuc(a1-6)]GlcNAc", "how_it_was_run": "as §1"}, "[17]": {"target": "Fuc(a1-2)Gal(b1-3)[Fuc(a1-4)]GlcNAc(b1-3)[Fuc(a1-3)[Gal(b1-4)]GlcNAc(b1-6)]Gal(b1-4)Glc", "how_it_was_run": "as §1"}, "[18]": {"target": "Fuc(a1-2)Gal(b1-3)[Fuc(a1-4)]GlcNAc(b1-3)[Gal(b1-4)GlcNAc(b1-6)]Gal(b1-4)Glc", "how_it_was_run": "as §1"}, "[19]": {"target": "Fuc(a1-2)Gal(b1-4)Fuc(a1-3)]GlcNAc(b1-2)Man(a1-3)[Fuc(a1-2)Gal(b1-4)[Fuc(a1-3)]GlcNAc(b1-2)Man(a1-6)]Man(b1-4)GlcNAc(b1-4)GlcNAc", "how_it_was_run": "as §1"}, "Fuc(a1-2)Gal(b1-4)Glc": {"target": "Fuc(a1-2)Gal(b1-4)Glc", "how_it_was_run": "as §1"}, "Fuc(a1-2)Gal(b1-4)Glc6S": {"target": "Fuc(a1-2)Gal(b1-4)Glc6S", "how_it_was_run": "as §1"}, "Fuc(a1-2)Gal(b1-4)GlcNAc": {"target": "Fuc(a1-2)Gal(b1-4)GlcNAc", "how_it_was_run": "as §1"}, "[20]": {"target": "Fuc(a1-2)Gal(b1-4)GlcNAc(b1-2)Man", "how_it_was_run": "as §1"}, "[21]": {"target": "Fuc(a1-2)Gal(b1-4)GlcNAc(b1-2)Man(a1-3)[Fuc(a1-2)Gal(b1-4)GlcNAc(b1-2)Man(a1-6)]Man(b1-4)GlcNAc(b1-4)GlcNAc", "how_it_was_run": "as §1"}, "[22]": {"target": "Fuc(a1-2)Gal(b1-4)GlcNAc(b1-2)Man(a1-3)[Fuc(a1-2)Gal(b1-4)GlcNAc(b1-2)Man(a1-6)]Man(b1-4)GlcNAc(b1-4)[Fuc(a1-6)]GlcNAc", "how_it_was_run": "as §1"}, "[23]": {"target": "Fuc(a1-2)Gal(b1-4)GlcNAc(b1-2)[Fuc(a1-2)Gal(b1-4)GlcNAc(b1-4)]Man(a1-3)[Fuc(a1-2)Gal(b1-4)GlcNAc(b1-2)Man(a1-6)]Man(b1-4)GlcNAc(b1-4)GlcNAc", "how_it_was_run": "as §1"}, "[24]": {"target": "Fuc(a1-2)Gal(b1-4)GlcNAc(b1-3)Gal(b1-4)GlcNAc", "how_it_was_run": "as §1"}, "[25]": {"target": "Fuc(a1-2)Gal(b1-4)GlcNAc(b1-3)Gal(b1-4)GlcNAc(b1-2)Man(a1-3)[Fuc(a1-2)Gal(b1-4)GlcNAc(b1-3)Gal(b1-4)GlcNAc(b1-2)Man(a1-6)]Man(b1-4)GlcNAc(b1-4)GlcNAc", "how_it_was_run": "as §1"}, "[26]": {"target": "Fuc(a1-2)Gal(b1-4)GlcNAc(b1-3)Gal(b1-4)GlcNAc(b1-3)Gal(b1-4)GlcNAc", "how_it_was_run": "as §1"}, "[27]": {"target": "Fuc(a1-2)Gal(b1-4)GlcNAc(b1-3)GalNAc", "how_it_was_run": "as §1"}, "[28]": {"target": "Fuc(a1-2)Gal(b1-4)GlcNAc(b1-3)[Fuc(a1-2)Gal(b1-4)GlcNAc(b1-6)]GalNAc", "how_it_was_run": "as §1"}, "[29]": {"target": "Fuc(a1-2)Gal(b1-4)GlcNAc(b1-3)[Fuc(a1-3)[Gal(b1-4)]GlcNAc(b1-6)]Gal(b1-4)Glc", "how_it_was_run": "as §1"}, "[30]": {"target": "Fuc(a1-2)Gal(b1-4)GlcNAc(b1-6)GalNAc", "how_it_was_run": "as §1"}, "[31]": {"target": "Fuc(a1-2)Gal(b1-4)GlcNAc6S", "how_it_was_run": "as §1"}}, "note": "Some of the results follow.", "data": [{"binder": "MGL2 (Mus musculus), Q8JZN1 (protein) MTMRYENFQNLEREEKNQEMRNGDKKGGMESPKFALIPSQSFLWRILSWTHLLLFSLGLSLLLLVVISVIGSQNSQLRRDLGTLRAILDNTTSKIKAEFQSLDSRADNFEKGISSLKVDVEDHRQELQAGRDLSQKVTSLESTLEKREQALKTDLSDLTDHVQQLETDLKALTCQLANLKNNGSEVACCPLHWTEHEGSCYWFSESEKSWPEADKYCRLENSHLVVVNSLEEQNFLQNRLANVLSWMGLTDQNGPWRWVDGTDFDKGFKNWRPLQPDNWHGHMLGGGEDCAHFSYDGRWNDDVCQRHYHWICETELGKASSAHSPQLIASVP", "values": [{"measurement": "glycan array binding signal (z-score)", "setting": "Fuc(a1-2)Gal", "value": -0.213}, {"measurement": "glycan array binding signal (z-score)", "setting": "Fuc(a1-2)Gal(b1-3)GalNAc", "value": -0.158}, {"measurement": "glycan array binding signal (z-score)", "setting": "[1]", "value": -0.258}, {"measurement": "glycan array binding signal (z-score)", "setting": "[2]", "value": -0.243}, {"measurement": "glycan array binding signal (z-score)", "setting": "[3]", "value": -0.155}, {"measurement": "glycan array binding signal (z-score)", "setting": "[4]", "value": -0.128}, {"measurement": "glycan array binding signal (z-score)", "setting": "[5]", "value": -0.051}, {"measurement": "glycan array binding signal (z-score)", "setting": "Fuc(a1-2)Gal(b1-3)GlcNAc", "value": -0.248}, {"measurement": "glycan array binding signal (z-score)", "setting": "[6]", "value": -0.024}, {"measurement": "glycan array binding signal (z-score)", "setting": "[7]", "value": -0.201}, {"measurement": "glycan array binding signal (z-score)", "setting": "[8]", "value": -0.259}, {"measurement": "glycan array binding signal (z-score)", "setting": "[9]", "value": -0.17}, {"measurement": "glycan array binding signal (z-score)", "setting": "[10]", "value": -0.139}, {"measurement": "glycan array binding signal (z-score)", "setting": "[11]", "value": -0.191}, {"measurement": "glycan array binding signal (z-score)", "setting": "[12]", "value": -0.188}, {"measurement": "glycan array binding signal (z-score)", "setting": "[13]", "value": -0.056}, {"measurement": "glycan array binding signal (z-score)", "setting": "[14]", "value": -0.063}, {"measurement": "glycan array binding signal (z-score)", "setting": "[15]", "value": 0.069}, {"measurement": "glycan array binding signal (z-score)", "setting": "[16]", "value": -0.208}, {"measurement": "glycan array binding signal (z-score)", "setting": "[17]", "value": -0.057}, {"measurement": "glycan array binding signal (z-score)", "setting": "[18]", "value": -0.242}, {"measurement": "glycan array binding signal (z-score)", "setting": "[19]", "value": -0.175}, {"measurement": "glycan array binding signal (z-score)", "setting": "Fuc(a1-2)Gal(b1-4)Glc", "value": -0.182}, {"measurement": "glycan array binding signal (z-score)", "setting": "Fuc(a1-2)Gal(b1-4)Glc6S", "value": -0.198}, {"measurement": "glycan array binding signal (z-score)", "setting": "Fuc(a1-2)Gal(b1-4)GlcNAc", "value": -0.155}, {"measurement": "glycan array binding signal (z-score)", "setting": "[20]", "value": -0.026}, {"measurement": "glycan array binding signal (z-score)", "setting": "[21]", "value": -0.014}, {"measurement": "glycan array binding signal (z-score)", "setting": "[22]", "value": -0.165}, {"measurement": "glycan array binding signal (z-score)", "setting": "[23]", "value": -0.106}, {"measurement": "glycan array binding signal (z-score)", "setting": "[24]", "value": -0.253}, {"measurement": "glycan array binding signal (z-score)", "setting": "[25]", "value": -0.236}, {"measurement": "glycan array binding signal (z-score)", "setting": "[26]", "value": -0.157}, {"measurement": "glycan array binding signal (z-score)", "setting": "[27]", "value": -0.244}, {"measurement": "glycan array binding signal (z-score)", "setting": "[28]", "value": -0.099}, {"measurement": "glycan array binding signal (z-score)", "setting": "[29]", "value": -0.299}, {"measurement": "glycan array binding signal (z-score)", "setting": "[30]", "value": 1.79}, {"measurement": "glycan array binding signal (z-score)", "setting": "[31]", "value": -0.243}]}]}
